# Among all 350,000 compounds or so, about 31,000 (8.9%) were called active. Inconclusive means that the source gave no clear call. Such entries were picked first, then a sample of the others. Calls follow the shape of the dose curve; as a rule, active = well fitted inhibition curve with a large enough effect; inconclusive = small, poorly fitted or top-dose-only effect; inactive = no such curve, though single readings can be large or run the other way. Where the call is inconclusive, the potency comes from a doubtful curve fit.
# Molecular target: Histone-lysine N-methyltransferase EHMT2 (Homo sapiens) (UniProt Q96KQ7)
# Assay: qHTS Assay for Inhibitors of Histone Lysine Methyltransferase G9a; also: nearly all actives have a fitted effect of over 75% in size
# Conditions: G9a H3K9 monomethylation, AlphaScreen, 2 h; activity, negative = inhibition: at 59 µM (top of the series) unless noted
# Method in brief: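 G9a (20 nM) preincubated 15 min RT with compounds, then 500 nM biotinylated H3K9 peptide and 20 uM SAM added; 2 h RT reaction. Monomethyl-H3K9 product detected by AlphaScreen with anti-H3K9me1 antibody, streptavidin donor and anti-rabbit IgG acceptor beads.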
# % is scaled to controls: 0 for no effect and ±100 for the full control effect; potency is read from the fitted curve at half-maximal effect; tags tell the direction and shape of the fitted curve.
# Chain of UniProt Q96KQ7 (Q96KQ7 whole entry, looked up): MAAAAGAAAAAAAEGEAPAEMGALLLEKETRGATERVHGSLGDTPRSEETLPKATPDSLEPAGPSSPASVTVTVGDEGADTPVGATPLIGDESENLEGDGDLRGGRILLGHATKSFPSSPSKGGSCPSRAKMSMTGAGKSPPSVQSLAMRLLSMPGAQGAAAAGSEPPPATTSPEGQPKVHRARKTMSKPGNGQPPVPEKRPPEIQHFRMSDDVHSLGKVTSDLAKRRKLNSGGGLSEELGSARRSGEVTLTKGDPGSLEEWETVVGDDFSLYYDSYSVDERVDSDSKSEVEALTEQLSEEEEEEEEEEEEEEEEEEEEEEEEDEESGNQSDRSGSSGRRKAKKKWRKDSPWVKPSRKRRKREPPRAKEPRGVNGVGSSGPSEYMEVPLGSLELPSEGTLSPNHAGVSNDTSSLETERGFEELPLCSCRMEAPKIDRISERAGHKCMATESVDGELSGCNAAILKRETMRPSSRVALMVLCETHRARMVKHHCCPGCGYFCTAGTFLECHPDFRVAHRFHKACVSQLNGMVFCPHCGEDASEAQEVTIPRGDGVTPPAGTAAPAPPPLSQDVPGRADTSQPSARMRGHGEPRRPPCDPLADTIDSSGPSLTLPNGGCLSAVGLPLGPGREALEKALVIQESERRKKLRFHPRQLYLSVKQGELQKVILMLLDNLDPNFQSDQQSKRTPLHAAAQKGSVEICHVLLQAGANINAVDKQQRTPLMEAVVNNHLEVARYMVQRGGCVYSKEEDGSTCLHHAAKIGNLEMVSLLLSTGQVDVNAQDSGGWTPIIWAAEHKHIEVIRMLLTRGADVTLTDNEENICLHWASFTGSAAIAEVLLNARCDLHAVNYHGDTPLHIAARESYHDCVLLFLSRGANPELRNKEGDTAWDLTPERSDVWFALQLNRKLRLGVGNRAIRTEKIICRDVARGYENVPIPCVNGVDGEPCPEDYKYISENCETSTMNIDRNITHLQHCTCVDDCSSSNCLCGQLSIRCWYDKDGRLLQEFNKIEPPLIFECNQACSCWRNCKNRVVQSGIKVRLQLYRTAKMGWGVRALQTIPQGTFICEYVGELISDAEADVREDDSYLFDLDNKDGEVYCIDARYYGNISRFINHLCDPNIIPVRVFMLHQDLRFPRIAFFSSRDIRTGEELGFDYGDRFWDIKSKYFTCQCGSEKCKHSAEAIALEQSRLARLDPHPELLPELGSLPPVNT
SMILES,Potency,"activity, negative = inhibition"
CCc1ccc([C@@H]2C[C@H]3CN(Cc4ccccc4OC)C(=O)[C@]34CCCN24)cc1,"inconclusive: 79.4 µM [inhibitor, single point]",
COc1ccc(NC(=O)C2CCN(C(=O)N3CCOc4ccccc43)CC2)cc1,"inconclusive: 14.1 µM [inhibitor, partial curve]",
CC(=O)Nc1nc(C)c(-c2csc(Nc3ccc(O)cc3)n2)s1,active: 4.47 µM,
Cc1[nH]cnc1CSCc1ccc(F)cc1,"inconclusive: 25.1 µM [inhibitor, single point]",
COc1cc(N)c(Cl)cc1C(=O)OC(C)C(=O)Nc1cccc(S(=O)(=O)N2CCOCC2)c1 (stereo unspecified),"inconclusive: 89.1 µM [inhibitor, partial curve, poor fit]",
CCN1C(=O)c2ccccc2Sc2ccc(C(=O)NCCN3CCOCC3)cc21,"inconclusive: 89.1 µM [inhibitor, single point]",
Cc1c(Cl)cccc1-n1ccnc1SCC(=O)O,"inconclusive: 89.1 µM [inhibitor, partial curve, poor fit]",
CCOc1ccc(NC(=O)CN(C)C(=O)c2ccc3[nH]c4c(c3c2)CC(C)CC4)cc1OCC (stereo unspecified),active: 35.5 µM,
COc1cccc(/C=N/NC(=O)C(c2ccncc2)N2CCOCC2)c1 (stereo unspecified),,inactive: 29.1%
N#Cc1nc(COc2ccc(F)cc2)oc1N1CCN(Cc2ccccc2)CC1,,inconclusive: -96.4% [inhibitor]
CCCCOC(=O)C1CCCC(C(=O)OCCCC)N1 (stereo unspecified),active: 50.1 µM,
CN1/C(=C\C(=O)CSc2nnc(NCc3ccccc3)s2)C(C)(C)c2ccccc21,active: 3.16 µM,
Cc1nn(-c2ccccc2)c(Cl)c1C(=O)Nc1ccc(N2CCOCC2)cc1,"inconclusive: 50.1 µM [inhibitor, partial curve]",
Cc1cc(C)nc(SCC(=O)c2cc3ccccc3oc2=O)n1,,inconclusive: -109% [inhibitor]
CC(C(=O)c1c[nH]c(C(=O)N=CN(C)C)c1)c1ncc(C(F)(F)F)cc1Cl (stereo unspecified),,inactive: 2.17% [at 102 µM]
Nc1ccc(C23CC4CC(CC(C4)C2)C3)cc1,"inconclusive: 50.1 µM [inhibitor, partial curve]",
O=S(=O)(c1ccccc1)c1nc(-c2ccc(Cl)cc2)oc1NCCCN1CCOCC1,active: 44.7 µM,
O=C1c2oc3ccccc3c(=O)c2C(c2ccc(O)cc2)N1c1nccs1 (stereo unspecified),,inactive: 0.59% [at 102 µM]
COc1ccccc1Nc1ncc(-c2cccs2)s1,,inconclusive: -75.1% [inhibitor]
O=C(OCc1nnc(-c2ccccc2)o1)c1ccc([N+](=O)[O-])o1,"inconclusive: 50.1 µM [inhibitor, partial curve]",
O=CN1CCN(C(=O)c2ccccc2F)CC1,,inactive: 0.204%
Cc1occc1C(=O)NCc1nc(-c2ccccc2)no1,,inactive: 9.64% [at 102 µM]
CCOC(=O)c1c(C)n(C)c2cc(-c3ccc(F)cc3)c(O)cc12,"inconclusive: 44.7 µM [inhibitor, partial curve]",

SMILES,Potency,"activity, negative = inhibition"
CC[N+]1(C)[C@@H]2CC[C@H]1CC(OC(=O)[C@H]1CC[C@@](C(=O)OC3C[C@H]4CC[C@@H](C3)[N+]4(C)CC)(c3ccccc3)c3ccccc31)C2 (stereo partly specified),,inactive: 12.5% [at 21.5 µM]
N#Cc1c(NC(=O)CCCl)sc2c1CCCCC2,"inconclusive: 56.2 µM [inhibitor, partial curve, poor fit]",
O=C(CCCc1ccccc1)Nc1ccccc1[N+](=O)[O-],"inconclusive: 0.891 µM [inhibitor, full curve, poor fit]",
CC(C)Sc1n[nH]c2nc3c(c(=O)n12)C1(CCCC1)Cc1ccccc1-3,,inconclusive: -76.6% [inhibitor]
Cc1cc(C)nc(OC(=O)c2ccc(Cl)cc2Cl)n1,,inactive: 27.6% [at 12.7 µM]
COc1cccc(CC(=O)OCC(=O)NC(Cc2ccccc2)C(C)=O)c1 (stereo unspecified),,inactive: -6.56% [at 102 µM]
CC(C)(C)n1nc2c(c1NC(=O)c1ccccc1F)CS(=O)C2 (stereo unspecified),"inconclusive: 89.1 µM [inhibitor, single point]",
O=c1ccsn1Cc1ccccc1,"inconclusive: 0.447 µM [inhibitor, partial curve, poor fit]",
Cc1nc2c3ccccc3nc(NNC(=O)CCC(=O)NC(C)C)n2n1,,inactive: -1.28%
Cc1c(C(=O)c2ccc(F)cc2F)c2ccccn2c1CCC#N,active: 8.91 µM,
COCC(C)N=C1NN=C(c2cc(C)n(Cc3ccccc3Cl)c2C)CS1 (stereo unspecified),active: 39.8 µM,
COc1ccc(NC(=O)c2cc(S(=O)(=O)N(Cc3ccccc3)c3ccccc3)ccc2Cl)cn1,,inactive: 15.7%
Cc1cc(NC(=O)/C=C/c2ccccc2)c(C(C)C)cc1O,"inconclusive: 50.1 µM [inhibitor, partial curve]",
Cc1nnc(SCC(=O)Nc2sc3c(c2C#N)CCCC3)[nH]c1=O,"inconclusive: 31.6 µM [inhibitor, single point]",
CCC(=O)NCCc1nc2cc(NC(=O)c3ccc(F)cc3)ccc2n1C,,inactive: -22.7% [at 102 µM]
Nn1c(Cc2cccc3ccccc23)nnc1SCCOc1ccc(F)cc1,"inconclusive: 39.8 µM [inhibitor, single point]",
O=C(O)C1=C[C@H](c2cccs2)C[C@H](OCc2ccc(CO)cc2)O1,"inconclusive: 35.5 µM [inhibitor, single point]",
CC(C)[N+](C)(C)CC(O)COc1cccc2ccccc12 (stereo unspecified),"inconclusive: 2 µM [inhibitor, partial curve, poor fit]",
CCN(CC)CCC(c1ccc(N(C)C)cc1)c1c(OC)cc(OC)c2c(-c3ccccc3)cc(=O)oc12 (stereo unspecified),"inconclusive: 31.6 µM [inhibitor, single point]",
COc1ccc(OC)c(-c2noc(N3CCN(c4cc(C)ccc4C)CC3)n2)c1,,inactive: -1.64%
CCN(CC)c1ccc(NC(=O)c2sc3ccccc3c2Cl)cc1,active: 5.01 µM,
O=C(N/N=C/c1cc(Cl)cc([N+](=O)[O-])c1O)C(O)(c1ccccc1)c1ccccc1,active: 28.2 µM,
COc1ccc(OC)c(C(c2nnnn2C2CCCC2)N2CCN(c3ccc(F)cc3)CC2)c1 (stereo unspecified),"inconclusive: 0.794 µM [inhibitor, partial curve, poor fit]",

# — PubChem BioAssay AID504332 (National Center for Advancing Translational Sciences (NCATS), 2011)
